This is an account of results in the GPR68 mutational scans of Howard et al. (2025).

Sequences and labels used below:
B1: GPR68, Q15743 (parent)
chain: MGNITADNSSMSCTIDHTIHQTLAPVVYVTVLVVGFPANCLSLYFGYLQIKARNELGVYLCNLTVADLFYICSLPFWLQYVLQHDNWSHGDLSCQVCGILLYENIYISVGFLCCISVDRYLAVAHPFRFHQFRTLKAAVGVSVVIWAKELLTSIYFLMHEEVIEDENQHRVCFEHYPIQAWQRAINYYRFLVGFLFPICLLLASYQGILRAVRRSHGTQKSRKDQIQRLVLSTVVIFLACFLPYHVLLLVRSVWEASCDFAKGVFNAYHFSLLLTSFNCVADPVLYCFVSETTHRDLARLRGACLAFLTCSRTGRAREAYPLGAPEASGKSGAQGEEPELLTKLHPAFQTPNSPGSGGFPTGRLA

Scores whose standard error is large were omitted. The source holds two more conditions with little spread; they are left out. Read del as a deletion of the residues named and ins as an insertion between two positions. For some assays here: How much ogerin was present is not stated here.

The variants in series [1] derive from B1. The series is described as follows: cAMP reporter score (Enrich2 score, wild type = 0); higher = more signal; HEK293T, FACS bins.
In series [2] the parent is B1. The series is described as follows: surface expression score (Enrich2 score, wild type = 0); higher = more signal; HEK293T, FACS bins.

Turning to MGNITADNSSMSCTIDHTIHQTLAPVVYVTVLVVGFPANCLSLYFGYLQIKARNELGVYLCNLTVADLFYICSLPFWLQYVLQHDNWSHGDLSCQVCGILLYENIYISVGFLCCISVDRYLAVAHPFRFHQFRTLKAAVGVSVVIWAKELLTSIYFLMHEEVIEDENQHRVCFEHYPIQAWQRAINYYRFLVGFLFPICLLLASYQGILRAVRRSHGTQKSRKDQIQRLVLSTVVIFLACFLPYHVLLLVRSVWEASCDFAKGVFNAYHFSLLLTSFNCVADPVLYCFVSETTHRDLARLRGACLAFLTCSRTGRAREAYPLGAPEANGKSGAQGEEPELLTKLHPAFQTPNSPGSGGFPTGRLA [S328N], the cAMP reporter score in series [1] (pH 5.5) turned out to be 1.33; in series [1] (pH 6) it was 1.2; in series [1] (pH 6, modulator: ogerin), 1.04; in series [1] (pH 6.5, modulator: ogerin), 0.72. Also, the surface expression score in series [2] turned out to be 1.06.

As to MGNITADNSSMSCTIDHTIHQTLAPVVYVTVLVVGFPANCLSLYFGYLQIKARNELGVYLCNLTVADLFYICSLPFWLQYVLQHDNWSHGDLSCQVCGILLYENIYISVGFLCCISVDRYLAVAHPFRFHQFRTLKAAVGVSVVIWAKELLTSIYFLMHEEVIEDENQHRVCFEHYPIQAWQRAINYYRFLVGFLFPICLLLASYQGILRAVRRSHGTQKSRKDQIQRLVLSTVVIFLACFLPYHVLLLVRSVWEASCDFAKGVFNAYHFSLLLTSFNCVADPVLYCFVSETTHRDLARLRGACLAFLTCSRTGRAREAYPLGAPEALGKSGAQGEEPELLTKLHPAFQTPNSPGSGGFPTGRLA [S328L], the cAMP reporter score in series [1] (pH 5.5) was 0.391; in series [1] (pH 6) it was 0.324; in series [1] (pH 6, modulator: ogerin), 0.646; in series [1] (pH 6.5, modulator: ogerin), -0.149. For the same variant, the surface expression score in series [2] is -0.118.

Take MGNITADNSSMSCTIDHTIHQTLAPVVYVTVLVVGFPANCLSLYFGYLQIKARNELGVYLCNLTVADLFYICSLPFWLQYVLQHDNWSHGDLSCQVCGILLYENIYISVGFLCCISVDRYLAVAHPFRFHQFRTLKAAVGVSVVIWAKELLTSIYFLMHEEVIEDENQHRVCFEHYPIQAWQRAINYYRFLVGFLFPICLLLASYQGILRAVRRSHGTQKSRKDQIQRLVLSTVVIFLACFLPYHVLLLVRSVWEASCDFAKGVFNAYHFSLLLTSFNCVADPVLYCFVSETTHRDLARLRGACLAFLTCSRTGRAREAYPLGAPEAMGKSGAQGEEPELLTKLHPAFQTPNSPGSGGFPTGRLA [S328M]: the cAMP reporter score is 0.163 in series [1] (pH 5.5); 0.158 in series [1] (pH 6); 0.142 in series [1] (pH 6, modulator: ogerin); 0.504 in series [1] (pH 6.5, modulator: ogerin). Moreover, the surface expression score in series [2] stood at 0.003.

For the variant MGNITADNSSMSCTIDHTIHQTLAPVVYVTVLVVGFPANCLSLYFGYLQIKARNELGVYLCNLTVADLFYICSLPFWLQYVLQHDNWSHGDLSCQVCGILLYENIYISVGFLCCISVDRYLAVAHPFRFHQFRTLKAAVGVSVVIWAKELLTSIYFLMHEEVIEDENQHRVCFEHYPIQAWQRAINYYRFLVGFLFPICLLLASYQGILRAVRRSHGTQKSRKDQIQRLVLSTVVIFLACFLPYHVLLLVRSVWEASCDFAKGVFNAYHFSLLLTSFNCVADPVLYCFVSETTHRDLARLRGACLAFLTCSRTGRAREAYPLGAPEAKGKSGAQGEEPELLTKLHPAFQTPNSPGSGGFPTGRLA [S328K], the cAMP reporter score came out at 1.95 in series [1] (pH 5.5); 1.03 in series [1] (pH 6); 2.27 in series [1] (pH 6, modulator: ogerin); 1.71 in series [1] (pH 6.5, modulator: ogerin). The surface expression score in series [2] was determined as 0.738.
